From the supplement of paper PMC4723716 come the findings set out here.

± gives the uncertainty stated by the source. Whole data set: some 9,900 compounds, median “viability index relative to DMSO control” near 1, cut for the lowest 2% near 0.85. This is one part of the list.

This assay deals with Plasmodium falciparum NF54 stage V gametocytes. As to the kind of experiment: viability index relative to DMSO control (fraction); higher = less gametocyte killing. As to conditions: 2.5 µM, library set: Broad Institute DOS, incubation time: 72 h. The essentials: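 P. falciparum NF54 stage V gametocytes in serum-free screening medium (0.75% gametocytemia, 1.25% hematocrit, 10 µl) were incubated with compound at 2.5 µM in 1,536-well plates for 72 hr at 37°C under low oxygen. Then 3 µl of 2.5 µM MitoTracker Red CMXRos plus 0.13% saponin was added for one to two hours. One field per well was imaged, 20–70 µm2 red particles were counted, and the viability index was the count divided by the plate mean of DMSO wells.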

As to `COc1ccc([C@@H]2C/C=C\C[C@@H](c3ccc4c(c3)OCO4)NC(=O)[C@H](c3ccccc3)CC(=O)N2)c(OC)c1`, the viability index was 0.919 ± 0.075. In the case of `CN(C)C(=O)c1ccc(-c2ccc([C@H]3[C@@H]4CN(C(=O)C5CC5)C[C@H]3N4)cc2)cc1` it was 1.05 ± 0.054; in that of `COc1ccc2c3c([nH]c2c1)[C@H](CO)NC[C@]31CN(C1)S(=O)(=O)c1cccs1`, 1.03 ± 0.026. The same measure for `C[C@@H]1CN([C@H](C)CO)C(=O)c2cc(C#Cc3ccccc3)cnc2O[C@H]1CN(C)C(=O)c1ccccc1`: 0.965 ± 0.019. Take `Cn1cnc(S(=O)(=O)N2CC[C@@H]3[C@H](CO)Nc4ccc(C5=CCCCC5)cc4[C@@H]32)c1`: the viability index is 1.05 ± 0.08.

In turn, `O=S(=O)(c1cccc(F)c1)N1CC[C@@H]2[C@@H](CO)Nc3ccc(C#Cc4ccccc4F)cc3[C@@H]21` had a viability index of 1.07 ± 0.025. In turn, `CCCNC(=O)N1[C@H](C#N)[C@@H](c2ccc(-c3ccccc3F)cc2)[C@@H]1CO` registered a viability index of 1.08 ± 0.053. The same measure for `COc1ccc(NC(=O)N2CC(=O)N3[C@H](CO)[C@H](c4ccc(Br)cc4)[C@H]3C2)cc1`: 0.988 ± 0.017; for `CN(C)CC(=O)N1[C@H](CO)[C@H](c2ccc(C#CC3CCCCC3)cc2)[C@@H]1C#N`: 1.09 ± 0.038. In the case of `N#C[C@H]1[C@@H](c2ccccc2C2=CCCC2)[C@@H](CO)N1C(=O)NC1CCCCC1` it was 1.07 ± 0.11. For `C[C@@H]1CCCCO[C@@H](CN(C)C(=O)CCC(F)(F)F)[C@@H](C)CN([C@@H](C)CO)C(=O)c2cc(NC(=O)C3CCCCC3)ccc2O1`, the viability index is 1.08 ± 0.13. Consider `COCC(=O)Nc1ccc2c(c1)C(=O)N(C)C[C@H](OC)[C@@H](C)CN(C(=O)c1ccncc1)[C@@H](C)CO2`, for which the viability index is 1.13 ± 0.027. In the case of `Cc1ccc(S(=O)(=O)Nc2ccc3c(c2)C(=O)N(C)[C@H]2CC[C@H](CC(=O)NCCc4ccncc4)O[C@H]2CO3)cc1` it was 1.01 ± 0.021; in that of `CO[C@@H]1CC[C@H]2CCOc3ccc(C#N)cc3C(=O)N(C)[C@@H](C)C(=O)N(C)C[C@@H]1O2`, 0.987 ± 0.024; in that of `C/C=C/c1ccc([C@@H]2[C@@H](CNC(=O)CC3CC3)N(C(=O)CC)[C@H]2CO)cc1`, 0.994 ± 0.033. In the case of `CCS(=O)(=O)NCC[C@@H]1CC[C@@H](NS(=O)(=O)c2ccccc2C)[C@H](CO)O1` it was 1.13 ± 0.05.

With `Cc1ccc(S(=O)(=O)Nc2ccc3c(c2)C(=O)N([C@@H](C)CO)C[C@H](C)[C@H](CN(C)S(=O)(=O)c2cccs2)OCCCC[C@H](C)O3)cc1`, the viability index came to 1.05 ± 0.028.

`CNC(=O)C[C@@H]1CC[C@@H]2[C@H](COc3ccc(NS(=O)(=O)c4ccc(F)cc4)cc3C(=O)N2C)O1` returned a viability index of 1.09 ± 0.014. In the case of `CO[C@H]1CN(C)C(=O)c2cc(NC(=O)c3cccc(F)c3)ccc2OC[C@@H](C)N(C)C[C@@H]1C` it was 1.02 ± 0.048; in that of `COc1cccc(-c2ccc3c(c2)[C@@H]2[C@@H](CCN2C(=O)c2ccccc2F)[C@H](CO)N3C)c1`, 0.878 ± 0.1.

As to `CNC(=O)C[C@@H]1CC[C@H]2[C@@H](COc3ccc(NS(=O)(=O)c4ccc(F)cc4)cc3C(=O)N2C)O1`, the viability index was found to be 0.925 ± 0.093. In the case of `CCCC#Cc1ccc([C@H]2[C@@H](CO)N3C(=O)CN(C(=O)c4cccnc4)C[C@@H]23)cc1` it was 1.024 ± 0.0042; in that of `COc1ccc(NC(=O)N(C)C[C@@H]2OCc3cnnn3CCCC(=O)N([C@H](C)CO)C[C@@H]2C)c(OC)c1`, 1.05 ± 0.062. In the case of `C(=C\c1ccc([C@H]2[C@H]3CNC[C@@H]2N3Cc2nccs2)cc1)/c1ccccc1` it was 1.02 ± 0.0043. The same measure for `COc1ccccc1C(=O)Nc1ccc2c(c1)C(=O)N(C)C[C@@H](OC)[C@@H](C)CN(C(C)=O)[C@H](C)CO2`: 1.11 ± 0.021. `C[C@@H]1CN([C@@H](C)CO)C(=O)c2cccc(NC(=O)NC3CCCCC3)c2O[C@H]1CN(C)Cc1ccc(C(F)(F)F)cc1` had a viability index of 0.934 ± 0.059. The same measure for `CO[C@H]1CN(C)C(=O)c2cc(NC(=O)C3CC3)ccc2OC[C@H](C)N(Cc2cc(F)ccc2F)C[C@@H]1C`: 0.984 ± 0.034; for `O=C(NCC1CC1)[C@H]1[C@H](CO)[C@H]2Cn3c(ccc(-c4cccnc4)c3=O)[C@H]2N1Cc1cocn1`: 1.04 ± 0.032.

Turning to `CN1CCN(C(=O)C[C@@H]2CC[C@@H]3[C@H](COC[C@@H](O)CN3C(=O)c3ccccc3F)O2)CC1`, the viability index was found to be 1.014 ± 0.0032. The same measure for `C[C@@H]1CN([C@@H](C)CO)C(=O)c2cc(NS(=O)(=O)c3cn(C)cn3)ccc2O[C@@H](C)CCCCO[C@H]1CN(C)Cc1ccc2c(c1)OCO2`: 1.06 ± 0.092. In the case of `CNC[C@H]1OCCCC[C@H](C)Oc2ccc(NS(=O)(=O)c3ccc(F)cc3)cc2C(=O)N([C@H](C)CO)C[C@H]1C` it was 0.966 ± 0.11; in that of `O=C(Cc1cccnc1)N1CC(=O)N2[C@H](C1)[C@H](c1ccc(C#CC3CCCCC3)cc1)[C@@H]2CO`, 0.925 ± 0.034.

The compound `C/C=C/c1ccc([C@H]2[C@@H](CO)N(C(C)=O)C23CN(C(=O)NC2CCCCC2)C3)cc1` had a viability index of 1.03 ± 0.078. The same measure for `O=C(N[C@@H]1C=C[C@@H](CC(=O)N2CCC(Cc3ccccc3)CC2)O[C@@H]1CO)c1cnccn1`: 0.9641 ± 0.0034. The same measure for `C[C@H](CO)N1C[C@H](C)[C@@H](CN(C)C(=O)[C@@H](Cc2ccccc2)N(C)C)OCc2ccccc2-c2c(n(C)c3ccccc23)C1=O`: 1.01 ± 0.15.
